Over roughly 1,400 sequences, “thermal melting temperature (Tm) of peptide-HLA complex” has its median near 60; the lowest 2% begin near 45. The list shows a part of the results.
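Also: cell lysates heated 10 min at 37–73 °C, remaining pHLA pulled down with pan-class I antibody, peptides quantified by DIA-MS versus 37 °C, Tm where half the complex is lost.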

The assay has as its target HLA-B*07:02. The experiment in a line: thermal melting temperature (Tm) of peptide-HLA complex; higher = more thermostable pHLA complex. As to conditions: C1R-B*07:02.
LPQPVPLSV displayed a thermal melting temperature of 62.6 °C.

In turn, IPMKLAGL showed a thermal melting temperature of 60.3 °C.

The sequence RPASGSPFQL yielded a thermal melting temperature of 52.6 °C.

As to VARPLSTAL, the thermal melting temperature was 59.6 °C.

Take KPVNRISL: the thermal melting temperature worked out at 57.3 °C.

Regarding TPYNYPVPV, the thermal melting temperature was 62.4 °C.

APMGIRLSP came in with a thermal melting temperature of 60.3 °C.

As to LPELKSTL, the thermal melting temperature stood at 60.8 °C.

APSDLRTIQTF registered a thermal melting temperature of 62.8 °C.

Turning to TPRNPNSAILL, the thermal melting temperature was 59.3 °C.

Turning to APRAALVFAL, the thermal melting temperature worked out at 63.2 °C.

Regarding LPSWGRAEL, the thermal melting temperature came to 62.8 °C.

APTPIQALTL had a thermal melting temperature of 60.5 °C.

For APKSQIVML, the thermal melting temperature was found to be 61.9 °C.

GSISRIYL had a thermal melting temperature of 41.4 °C.

Consider KPLGPTAAF, for which the thermal melting temperature came out at 61.1 °C.

MPDVGRSMQQL: the thermal melting temperature came out at 61.3 °C.

In turn, IPRSILMTTF registered a thermal melting temperature of 60.2 °C.

HPRSPTPTL showed a thermal melting temperature of 58.2 °C.

For the sequence NPFLRQELL, the thermal melting temperature came to 61.5 °C.

Regarding RPIAPAPPSTL, the thermal melting temperature turned out to be 59.7 °C.

For the sequence SPRKLPTSL, the thermal melting temperature turned out to be 58.1 °C.

In turn, VPMPLPTVL yielded a thermal melting temperature of 62.6 °C.

As for SPANLPAVL, the thermal melting temperature was determined as 62.6 °C.

On to HPRSPNVLSV, for which the thermal melting temperature came out at 57.6 °C.

The sequence FPEALRLAL showed a thermal melting temperature of 62.7 °C.

As to SPLKGLSL, the thermal melting temperature was 57.7 °C.

The sequence LPKSPPYTAF yielded a thermal melting temperature of 63.5 °C.

Sequence APSQQRLVVV returned a thermal melting temperature of 61.4 °C.

With MPRQPSATRL, the thermal melting temperature is 54.7 °C.

Take VPNAGRGLV: the thermal melting temperature came out at 58.5 °C.

LPKDQGITL had a thermal melting temperature of 61.7 °C.

For RPQPQTLQL, the thermal melting temperature is 56.6 °C.

On to IFSEVPVQL, for which the thermal melting temperature was found to be 42.1 °C.

In turn, KPKFILSVL gave a thermal melting temperature of 62.7 °C.

Consider APRELGLGLGL, for which the thermal melting temperature is 62.5 °C.

These data come from the supplement of paper PMC7726561.
